In ChEMBL document CHEMBL4888484, “Replenishing the malaria drug discovery pipeline: Screening and hit evaluation of the MMV Hit Generation Library 1 (HGL1) against asexual blood stage Plasmodium falciparum ,using a nano luciferase reporter read-out” (2022):
Where “and” joins values, the source holds several entries; their conditions need not be identical. Identical values can stand only once. Hit rate of the full screen: of about 150,000 compounds, about 540 (0.36%) showed an effect of 50% or more. The list shows a part of the results.

Test system: Plasmodium falciparum
Assay: Primary screen in NF54 nanoGlo assay, in single point, at 2uM, 72h; a lower Z score goes with more inhibition
Assay type: functional, Erythrocyte
Conditions: timepoint 72 hour

Row | Structure (SMILES) | % Inhibition [%] | Z score | % Inhibition (2 µM)
1 | CCOc1ccccc1C(=O)N1CCC2(CC1)c1nccn1-c1ccccc1CN2C | -13 | 1.74 | –
2 | O=C(Cc1ccccc1)N1C[C@@H]2C[C@@H](O)CN2C2(CN(Cc3ccccc3)C2)C1 | -7 | 1.17 | –
3 | CN1CCN([C@H]2COC[C@@H]2NC(=O)c2cncc(Cl)c2)CC1 | -5 | 0.63 | –
4 | CC[C@@H](C(=O)N(CC)c1ccncc1)N1CCCC1=O | 10 | -1.39 | –
5 | O=C(CCCCc1nc2ccccc2s1)N1CCC(Nc2ccccc2Cl)CC1 | -12 | 1.1 | –
6 | CO[C@H]1C[C@H]2CC[C@@H](C1)N2Cc1ccc2c(c1)CCO2 | -6 | 1.15 | –
7 | O=C(Cc1ccc(F)cc1)N(CCN1CCCC1)CC(=O)N(Cc1ccc(F)cc1)Cc1cccs1 | -6 | 0.87 | –
8 | CCOC(=O)[C@]12CCCN[C@@H]1CCN(c1nccc(OC)n1)C2 | -14 | 1.39 | –
9 | C[C@H](NC(=O)c1cnn(Cc2ccccc2)c1)C1=CCCCC1 | -6 | 1.17 | –
10 | Cn1ncc(Cl)c1CN1CC2(CCOCC2)C1 | -3 | 0.39 | –
11 | C[C@@H](CCO)C1(CNC(=O)c2cccc3oc(=O)[nH]c23)CCC1 | -8 | 1.23 | –
12 | Cc1ccc2snc(-c3nc([C@@H]4CN5CCN4CC5)no3)c2c1 | -7 | 0.97 | –
13 | CC(C)(C)C(=O)NCC#CCN1CCCCC1 | -10 | 1.82 | –
14 | C=CCN1CC[C@]23c4c5ccc(O)c4O[C@H]2C(=O)CC[C@@]3(O)C1C5 | -14 | 1.2 | –
15 | CC1(C)NC(=O)c2ccccc2-n2nnnc21 | 9 | -1.36 | –
16 | COC1CCN(C2CN(C(=O)Cc3ccsc3)C2)CC1 | -5 | 0.86 | –
17 | Cc1ccc([C@H]2CN(Cc3cc4ccccc4o3)C[C@@H]2C(=O)O)cc1 | -4 | 0.48 | –
18 | O=C1NCCN(Cc2cnc(N3CCOCC3)nc2)C12CCCC2 | -4 | 0.83 | –
19 | CN1CCC[C@@]2(CCN(c3ccncc3C3CC3)C2)C1 | 0 | 0.05 | –
20 | CN1C(=O)C(C(=O)O)C2c3ccccc3OC13CCCCC23 (configuration not stated) | -12 | 1.61 | –
21 | COc1ccccc1OCC(=O)N1C[C@H](c2ccc(C)cc2)[C@@H](N(C)C)C1 | -16 | 2.07 | –

Row | Structure (SMILES) | % Inhibition [%] | Z score | % Inhibition (2 µM)
22 | CC(C)NC(=O)CCc1nc(C2=CCN(Cc3ccc(Cl)cc3)CC2)no1 | -14 | 1.74 | –
23 | CNC(=O)Oc1ccc(-c2cn3cc(Cl)ccc3[n+]2C)cc1 | 31 | -3.64 | –
24 | C[C@@H](Cc1ccccc1F)NCC1(CO)CCCC1 | -3 | 0.57 | –
25 | CC1(C)C(C(=O)N2CCC(n3ccnn3)CC2)C1(C)C | -5 | 0.9 | –
26 | Cc1ccc(Cl)cc1NC(=O)CN1CCCC1=O | -8 | 1.15 | –
27 | Cn1cc(C(C)(C)C(=O)Nc2cccc(S(=O)(=O)F)c2)cn1 | 6 | -0.79 | –
28 | O=C(Nc1ccc(-c2noc(=O)[nH]2)cc1)C1CC2(CCOCC2)C1 | -8 | 0.82 | –
29 | COc1cc(CC(=O)N2CCN(C)C3(CCN(C)CC3)C2)cc(OC)c1 | 3 | -0.6 | –
30 | CC(C)(C)OC(=O)N1[C@@H]2CC[C@H]1[C@@H]1C[C@]1(C(=O)O)C2 | -10 | 1.06 | –
31 | CN(Cc1cccnc1)C1CN(C(=O)Cc2cccc(F)c2)C1 | -4 | 0.67 | –
32 | CCCc1nn(C[C@H](O)COc2ccccc2)c(=O)o1 | 0 | 0.03 | –
33 | Cc1nc[nH]c1CN1C[C@H]2CC[C@@H](C1)N(C(=O)Cc1ccc(F)cc1Cl)C2 | 11 | -1.58 | –
34 | CN1CCN(C(=O)COc2c3c(cc4c2C(=O)N(C)CC4)OCO3)CC1 | -10 | 1.3 | –
35 | CN1CC2CN(c3nc4ccccc4s3)CC2C1 (configuration not stated) | -8 | 1.06 | –
36 | Cc1ccc(C(O)(c2ccc(C)c(C)c2)[C@H]2C[N@]3CC[C@@H]2CC3)cc1C | 37 | -0.92 | –
37 | N#Cc1cc(C(=O)N2C[C@@H]3CCCN3Cc3ccccc32)ccn1 | -13 | 1.57 | –
38 | CCCC(=O)N1C[C@H](c2cc(F)cc(F)c2)[C@@H]2[C@H]1C1CCN2CC1 | 2 | -0.41 | –
39 | O=C(Cc1cc2c(cc1Cl)OCCO2)N1CC(N2CCOCC2)C1 | 15 | -1.92 | –
40 | C[C@@H](Cn1cc(Br)cn1)NCCC(F)(F)F | -3 | 0.45 | –
41 | O[C@@H](CNC1CCCCC1)COC1CCCC1 | -7 | 1.09 | –
42 | CN1C[C@@H]2CC[C@H]1CN(C(=O)Cc1cccc(Cl)c1)C2 | 14 | -1.32 | –

Row | Structure (SMILES) | % Inhibition [%] | Z score | % Inhibition (2 µM)
43 | CC(Cc1ccc(Br)cc1F)NCC(CCO)c1ccccc1 (configuration not stated) | -4 | 0.64 | –
44 | N#CCN(C1CC1)S(=O)(=O)c1ccc(C#N)c(C(F)(F)F)c1 | -2 | 0.25 | –
45 | CC(=O)OC1C2CCC1C(N1CCCCC1)CC2 (configuration not stated) | – | – | -7% and 4%
46 | Cc1conc1CN1CCc2nc[nH]c2C12CCOCC2 | -5 | 0.83 | –
47 | O=C(c1ccccc1)c1cc(Cl)ccc1NC(=O)[C@H]1CC(=O)N(c2ccc(F)cc2)C1 | 56 | -9.01 | –
48 | O=C1NC(=O)C2(Cc3ccccc3N3CCCCC32)C(=O)N1c1cc(Cl)ccc1Cl (configuration not stated) | -7 | 0.92 | –
49 | O=C(c1cnn2cccnc12)N1C[C@@H](c2ccccc2)[C@@H]2[C@H]1C1CCN2CC1 | -4 | 0.73 | –
50 | CNS(=O)(=O)c1cccc2c1CCNC2 | -14 | 1.76 | –
51 | CC(C)CN1C(=O)N(c2cccc(Cl)c2)[C@@H](n2oc(=O)n(-c3cccc(Cl)c3)c2=O)C1(C)C | -4 | 0.62 | –
52 | C[C@H](NCc1ncc(Cl)cc1Br)[C@H](O)c1ccc2c(c1)OCO2 | 11 | -1.87 | –
53 | COCC(C)(C)N1CCN(C(=O)Cc2c(C)n[nH]c2C)CC1 | 1 | -0.14 | –
54 | CN1CC2CCN(S(=O)(=O)c3c[nH]c4ncc(Br)cc34)C2C1 (configuration not stated) | -4 | 0.49 | –
55 | CN1C(=O)C2(CCN(C[C@H]3CCCO3)CC2)c2ccccc21 | -8 | 0.73 | –
56 | Cn1ccnc1CCN1CCC(C(F)(F)F)CC1 | -15 | 1.66 | –
57 | Cc1ccc(CNCCc2c[nH]c3ccccc23)o1 | 14 | -1.58 | –
58 | CCNC(=O)c1ccnc(N2C[C@H](c3ccccc3)[C@@H]3[C@H]2C2CCN3CC2)c1 | 8 | -1.16 | –
59 | CCc1nnc(CN(CC)C(=O)CN2C(=O)CC[C@@H]2C)o1 | -4 | 0.76 | –
60 | c1ccc(-c2ccc(NCc3cncnc3)nc2)cc1 | -11 | 1.16 | –
61 | O=C(NCc1ccco1)Oc1ccccc1 | -12 | 1.54 | –
62 | CCOc1ccc([C@@H](C#N)C(C)=O)cc1OCC | -12 | 1.21 | –
63 | O=C(Cc1ccc2c(c1)OCO2)N1C[C@@H]2CC[C@H]1CN(Cc1ccccn1)C2 | -10 | 1.51 | –

Row | Structure (SMILES) | % Inhibition [%] | Z score | % Inhibition (2 µM)
64 | CC(C)(N)Cc1cccc(Br)c1 | 3 | -0.37 | –
65 | CC(C)c1cncnc1N1C[C@H]2COc3ccccc3C[C@@]2(C(=O)O)C1 | -15 | 2.53 | –
66 | c1nc(CN2CC3(CCCCC3)C2)cs1 | -12 | 1.76 | –
67 | Nc1ncnc(N2CCc3ccnc(O)c3C2)c1Cl | -16 | 3.22 | –
68 | Cc1ccc(OCc2c(C(=O)NCc3cccnc3)c(=O)cc(C)n2CCN2CCOCC2)cc1 | 3 | -0.42 | –
69 | N#Cc1ccc(NCCCOC[C@H]2CCOC2)cc1Cl | 1 | -0.16 | –
70 | CN1C(=O)[C@@]2(c3ccccc31)[C@@H](C(=O)N1CCC3(CC1)OCCO3)C[C@H]1CCCN12 | -17 | 1.67 | –
71 | CC(C)n1ccc(CN2C[C@@H](C(=O)O)[C@H](c3ccc(Br)cc3)C2)n1 | -2 | 0.44 | –
72 | Nc1ccc(C(=O)N2CCN(CC3CC3)[C@@H]3CS(=O)(=O)C[C@@H]32)cn1 | 3 | -0.48 | –
73 | COc1cc(OC)cc(C(C(=O)O)N2C3CCC2CC2(C3)CC2(F)F)c1 (configuration not stated) | -18 | 1.93 | –
74 | CC(C)c1nnc2ccc(NC(=O)c3cn(CC4(C)COC4)nn3)cn12 | -1 | 0.2 | –
75 | COc1ccc(CN2C[C@H]2C(N)=O)cc1 (some centres not stated) | 8 | -1.02 | –
76 | O=C(c1nc(Cn2nc(-c3ccccc3)ccc2=O)no1)N1CCC2(CC1)OCCO2 | -12 | 1.47 | –
77 | CCOC(=O)[C@]1(F)CN(CCc2ccncc2)CC12COC2 | 7 | -1.2 | –
78 | Cc1nc(NC(=O)N2CC3CCC2CN3)ccc1-c1ccccc1 (configuration not stated) | -2 | 0.33 | –
79 | O=C(c1cc[nH]n1)N1C[C@H](c2cc(F)cc(F)c2)[C@@H]2[C@H]1C1CCN2CC1 | -7 | 1.17 | –
80 | CCN1C[C@]2(COC)CCC(OC)[C@@]34C5C[C@]6(O)C(OC)C[C@@](OC(C)=O)(C5[C@H]6OC(=O)c5ccc(OC)cc5)C(C(OC)C23)[C@@H]14 (some centres not stated) | -5 | 0.46 | –
81 | CC1OCCC1(O)Cn1cnc2c(N3C4CCC3C(CO)C4)ncnc21 (configuration not stated) | -9 | 1.18 | –
82 | O=c1[nH]c2ccc(S(=O)(=O)Oc3cccc4ccccc34)cc2o1 | 5 | -0.69 | –
83 | O=C1N=C(O)NC(=O)C12Cc1ccccc1OC2c1ccccc1 (configuration not stated) | -6 | 0.92 | –
84 | CC(C)(C)n1nnc(CNC2(c3ccc(F)cc3F)CCCCC2)n1 | 35 | -3.91 | –
